Reference: a compilation of properties of binary mixtures (doi:10.1021/jp071051m)
The densities may have been worked out from excess volumes.

Assay: xn = mol fraction of the nth substance listed
Settings: 298.15 K, 101 kPa

In the case of `CCCC[n+]1ccn(C)c1.O=C([O-])C(F)(F)F` + CC#N, the mass density (x2 = 0) is reported as 1212.8 kg/m3, the mass density (x2 = 0.0798) is reported as 1208 kg/m3 and the mass density (x2 = 0.1769) is reported as 1197.8 kg/m3. It also gave a mass density (x2 = 0.3539) of 1169.9 kg/m3, a mass density (x2 = 0.4443) of 1150.8 kg/m3 and a mass density (x2 = 0.547) of 1123.3 kg/m3. The mass density (x2 = 0.6553) was 1084.3 kg/m3, the mass density (x2 = 0.7649) was 1027.7 kg/m3 and the mass density (x2 = 0.8457) was 970.5 kg/m3. For the same molecule, the mass density (x2 = 0.8802) was 939.8 kg/m3.
`CCCC[n+]1ccn(C)c1.F[P-](F)(F)(F)(F)F` + CC(C)=O gave a mass density (x2 = 0) of 1364 kg/m3, a mass density (x2 = 0.1006) of 1355 kg/m3 and a mass density (x2 = 0.1935) of 1333 kg/m3. The mass density (x2 = 0.3033) was 1302.6 kg/m3, the mass density (x2 = 0.3988) was 1271.9 kg/m3 and the mass density (x2 = 0.6016) was 1189.8 kg/m3. For the same molecule, the mass density (x2 = 0.6992) was 1125.5 kg/m3, the mass density (x2 = 0.8433) was 1000.8 kg/m3 and the mass density (x2 = 0.8853) was 958 kg/m3.
With `ClCCl` + CCCC[n+]1ccn(C)c1.F[P-](F)(F)(F)(F)F the mass density (x1 = 0.0753) was 1364 kg/m3, the mass density (x1 = 0.163) was 1363.5 kg/m3 and the mass density (x1 = 0.3361) was 1362.2 kg/m3. The mass density (x1 = 0.5384) was 1360.3 kg/m3, the mass density (x1 = 0.6462) was 1358.3 kg/m3 and the mass density (x1 = 0.738) was 1354.7 kg/m3. The mass density (x1 = 0.8242) was 1349.8 kg/m3 and the mass density (x1 = 0.8678) was 1344.8 kg/m3.
With `CCCC[n+]1ccn(C)c1.F[P-](F)(F)(F)(F)F` + CCOC(C)=O the mass density (x2 = 0) was 1364 kg/m3, the mass density (x2 = 0.0883) was 1348.1 kg/m3 and the mass density (x2 = 0.1793) was 1330.3 kg/m3. The mass density (x2 = 0.4691) was 1254.8 kg/m3, the mass density (x2 = 0.5703) was 1217.4 kg/m3 and the mass density (x2 = 0.6738) was 1170.5 kg/m3. It also gave a mass density (x2 = 0.8339) of 1067 kg/m3.
With `CCCC[n+]1ccn(C)c1.O=C([O-])C(F)(F)F` + ClC(Cl)Cl the mass density (x2 = 0) was 1212.8 kg/m3, the mass density (x2 = 0.0918) was 1225.3 kg/m3 and the mass density (x2 = 0.1815) was 1238 kg/m3. For the same molecule, the mass density (x2 = 0.2793) was 1256.2 kg/m3, the mass density (x2 = 0.3861) was 1276.5 kg/m3 and the mass density (x2 = 0.482) was 1297.4 kg/m3. The mass density (x2 = 0.5804) was 1321.5 kg/m3, the mass density (x2 = 0.6467) was 1340 kg/m3 and the mass density (x2 = 0.6812) was 1350 kg/m3. For the same molecule, the mass density (x2 = 0.729) was 1366.3 kg/m3, the mass density (x2 = 0.7847) was 1384.7 kg/m3 and the mass density (x2 = 0.8677) was 1418.6 kg/m3.
Molecule `CCCC[n+]1ccn(C)c1.F[P-](F)(F)(F)(F)F` + ClCCl has a mass density (x2 = 0) of 1364 kg/m3.
With `CCCC[n+]1ccn(C)c1.O=C([O-])C(F)(F)F` + O the mass density (x2 = 0) was 1212.8 kg/m3, the mass density (x2 = 0.1093) was 1216 kg/m3 and the mass density (x2 = 0.197) was 1215.5 kg/m3. For the same molecule, the mass density (x2 = 0.2888) was 1211.8 kg/m3, the mass density (x2 = 0.396) was 1209.7 kg/m3 and the mass density (x2 = 0.4921) was 1206.7 kg/m3. The mass density (x2 = 0.5897) was 1199 kg/m3, the mass density (x2 = 0.6918) was 1186.9 kg/m3 and the mass density (x2 = 0.7927) was 1170.7 kg/m3. For the same molecule, the mass density (x2 = 0.884) was 1138.2 kg/m3 and the mass density (x2 = 0.9195) was 1107.1 kg/m3.
Work on `CCCC[n+]1ccn(C)c1.F[P-](F)(F)(F)(F)F` + c1ccncc1 yielded a mass density (x2 = 0) of 1364 kg/m3, a mass density (x2 = 0.0964) of 1350.8 kg/m3 and a mass density (x2 = 0.1929) of 1333 kg/m3. For the same molecule, the mass density (x2 = 0.291) was 1313.9 kg/m3, the mass density (x2 = 0.3899) was 1291.5 kg/m3 and the mass density (x2 = 0.5922) was 1233.5 kg/m3. It also gave a mass density (x2 = 0.6978) of 1193.9 kg/m3, a mass density (x2 = 0.7695) of 1158.1 kg/m3 and a mass density (x2 = 0.8372) of 1118.1 kg/m3. It also gave a mass density (x2 = 0.8781) of 1090 kg/m3.
